# According to the supplement of paper PMC4723716:
# ± gives the uncertainty stated by the source. Whole data set: some 9,900 compounds, median “viability index relative to DMSO control” near 1, cut for the lowest 2% near 0.85. The list shows a part of the results.
# Test system: Plasmodium falciparum NF54 stage V gametocytes
# Test: viability index relative to DMSO control (fraction); higher = less gametocyte killing
# Details: 2.5 µM, library set: Broad Institute DOS, incubation time: 72 h
# Procedure, shortened: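 Viability index is the count of red-stained particles in a well divided by the plate mean of solvent-only wells. Particles of 20–70 µm2 were counted in one imaged field per well after one to two hours with 3 µl of 2.5 µM MitoTracker Red CMXRos and 0.13% saponin. Before staining, P. falciparum NF54 stage V gametocytes in serum-free medium (0.75% gametocytemia, 1.25% hematocrit, 10 µl, 1,536-well plates) were kept with compound at 2.5 µM for 72 hr at 37°C under low oxygen.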
row,Structure (SMILES),viability index
1,O=C(CCN1CCCCC1)NCC[C@@H]1CC[C@H](NS(=O)(=O)c2cccc(Cl)c2)[C@H](CO)O1,0.9095 ± 0.0067
2,COCCNC(=O)[C@@H]1[C@@H](CO)[C@@H]2Cn3c(cccc3=O)[C@H]1N2S(=O)(=O)c1ccccc1C,1.03 ± 0.085
3,Cc1noc(C)c1S(=O)(=O)N(C)C[C@H]1OCc2ccccc2-c2ccccc2C(=O)N([C@@H](C)CO)C[C@H]1C,1.06 ± 0.046
4,C[C@H]1CN([C@@H](C)CO)S(=O)(=O)c2ccc(-c3cncnc3)cc2O[C@H]1CN(C)C(=O)NC1CCCC1,1.01 ± 0.026
5,CCc1nc(N2[C@@H](C#N)[C@@H](c3ccccc3-c3ccc(F)cc3)[C@@H]2CO)sc1C,1.05 ± 0.067
6,Cc1cc(C(=O)Nc2cccc3c2O[C@H](CN(C)C)[C@H](C)CN([C@@H](C)CO)C3=O)n(C)n1,0.948 ± 0.16
7,COc1cccc(NC(=O)N2CC(=O)N3[C@H](C2)[C@@H](c2ccc(C#CCC4CCCC4)cc2)[C@@H]3CO)c1,1.002 ± 0.0043
8,COc1ccc2c3c([C@@H](CO)N(C[C@]33CCN(CC4CCCC4)CC3)C(=O)C3CCC3)n(C)c2c1,1.1 ± 0.042
9,CCCNC(=O)N1[C@H](CO)[C@@H]2c3ccccc3N(C(=O)Nc3cccc(Cl)c3)C[C@@H]21,0.984 ± 0.041
10,COc1ccc(NC(=O)N(C)C[C@@H]2Oc3ccc(NC(=O)Nc4cccc5ccccc45)cc3CC(=O)N([C@H](C)CO)C[C@@H]2C)cc1,1.03 ± 0.014
11,COc1cccc(-c2cccc(-c3nc(C(=O)Nc4ccc(-c5ccccc5)cc4)cc4c3[C@@H](CCO)N(S(=O)C(C)(C)C)C4)c2)c1 (stereo partly drawn),1.09 ± 0.027
12,O=C(Cc1ccccc1)N1CC(=O)N2[C@H](CO)[C@@H](c3ccc(-c4ccc(F)cc4)cc3)[C@H]2C1,0.998 ± 0.033
13,O=C(NC[C@@H]1[C@@H](c2ccccc2)[C@H](CO)N1Cc1ccccn1)C1CCCC1,1.05 ± 0.068
14,C[C@H]1CN([C@@H](C)CO)C(=O)Cc2cc(NC(=O)CCCCCC(=O)Nc3ccccc3N)ccc2O[C@H]1CN(C)S(=O)(=O)c1cccs1,1.02 ± 0.043
15,COc1ccccc1-c1ccc([C@@H]2[C@@H](C#N)N(C(=O)c3cccnc3)[C@@H]2CO)cc1,1.06 ± 0.063
16,COc1cccc(S(=O)(=O)N[C@H]2CC[C@H](CC(=O)NC3Cc4ccccc4C3)O[C@@H]2CO)c1,1.04 ± 0.078
17,O=C(C[C@@H]1CC[C@H]2[C@@H](COC[C@@H](O)CN2Cc2ccc(Oc3ccccc3)cc2)O1)N1CCN(c2ccccc2)CC1,1.059 ± 0.0032

row,Structure (SMILES),viability index
1,C[C@@H]1CCCCO[C@@H](CN(C)Cc2ccncc2)[C@H](C)CN([C@@H](C)CO)C(=O)c2cc(NC(=O)Cc3ccccc3)ccc2O1,1.09 ± 0.064
2,Cc1noc(C)c1S(=O)(=O)N(C)C[C@H]1OCc2ccccc2-c2ccccc2C(=O)N([C@@H](C)CO)C[C@@H]1C,0.984 ± 0.024
3,CCC(=O)N1C[C@H](O)COC[C@@H]2O[C@H](CC(=O)NC)CC[C@H]21,1.1 ± 0.071
4,C[C@@H]1CN([C@@H](C)CO)C(=O)c2cc(NS(=O)(=O)c3cn(C)cn3)ccc2O[C@@H](C)CCCCO[C@@H]1CN(C)Cc1ccc2c(c1)OCO2,1.07 ± 0.018
5,CC(C)NC(=O)N(C)C[C@H]1Oc2ccc(NC(=O)Cc3ccccc3)cc2CC(=O)N([C@@H](C)CO)C[C@@H]1C,0.912 ± 0.002
6,CN(C)CC(=O)N[C@@H]1C=C[C@@H](CC(=O)NCc2ccc(Cl)cc2)O[C@H]1CO,1.125 ± 0.0094
7,CN(C)CC(=O)N1[C@@H](C#N)[C@@H](c2ccc(C#CC3CCCCC3)cc2)[C@@H]1CO,1.0785 ± 0.001
8,CCC(=O)N1C[C@H](C)[C@@H](OC)CN(C)C(=O)c2cc(NC(=O)Nc3ccc(Cl)cc3)ccc2OC[C@H]1C,1.03 ± 0.06
9,O=C(C[C@H]1C[C@@H]2c3cc(NS(=O)(=O)c4ccccc4)ccc3O[C@@H]2[C@H](CO)O1)N1CCOCC1,1.1145 ± 0.00073
10,N#C[C@H]1[C@@H](c2ccccc2)[C@@H](CO)N1S(=O)(=O)c1cccc(F)c1,1.09 ± 0.015
11,C[C@H](CO)N1C[C@H](C)[C@H](CN(C)S(C)(=O)=O)Oc2cc(-c3ccncc3)ccc2S1(=O)=O,1.18 ± 0.086
12,C[C@H]1CN([C@@H](C)CO)C(=O)c2cccc(NC(=O)C3CCOCC3)c2O[C@@H]1CN(C)C(=O)Nc1cccc2ccccc12,1.03 ± 0.11
13,COc1ccc(-c2ccc([C@@H]3[C@H]4CN(C(=O)C5CC5)CC(=O)N4[C@H]3CO)cc2)cc1,1.08 ± 0.042
14,C[C@@H]1CN([C@H](C)CO)C(=O)c2cccc(NC(=O)c3ccc(-c4nccs4)cc3)c2O[C@H]1CN(C)C(=O)Nc1ccc(C(F)(F)F)cc1,0.97 ± 0.025
15,C[C@H](NC(=O)C[C@H]1C[C@H]2c3cc(NS(=O)(=O)c4ccc(F)cc4)ccc3O[C@H]2[C@@H](CO)O1)c1ccccc1,1.111 ± 0.0095
16,C[C@@H](NC(=O)[C@H]1[C@H](CO)[C@H]2Cn3c(cccc3=O)[C@@H]1N2C(=O)C1CCC1)c1ccccc1,0.974 ± 0.1
